These results are taken from the supplement of paper PMC10126150.

Sequences with one replicate were seen in a single cluster, so their values are uncertain.

The subject of this series is ATP. Put plainly: switch fluorescence ratio, 500 uM ATP over buffer (Cy3 cluster intensity, sum of 5 cycles each) (fold (ratio)); higher = stronger signal-on switching upon ATP binding; sequences stand for … in TCGTCGGCAGCGTCAGATGTGTATAAGAGACAGTTTTTTTTTTTTTTTTTTTTTTTTT…TC. As to conditions: aptamer strand: ATP DNA aptamer (quencher-CACCTGGGGGAGTATTGCGGAGGAAGG + anchor), 100 nM annealed; ATP concentration: 500 uM; one replicate. The procedure, abridged:
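The quencher-labelled ATP aptamer, at 100 nM, was annealed to Cy3-labelled switching-strand clusters on a modified Illumina MiSeq flow-cell. The clusters were imaged in selection buffer, then after 15 min with 500 uM ATP at 22 °C, and this buffer/ATP cycle ran five times with NaOH stripping and re-annealing between runs. Per-cluster fluorescence ratios, summed target-cycle over summed buffer-cycle Cy3 intensity, were averaged per switch-domain sequence. Clusters outside 100-1000 RFU were excluded.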
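Further: ATP exposure 15 min at 22 °C before imaging.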

In the case of CGAGGACCTT, the switch fluorescence ratio is 1.03.
Next, TAAGAAAATG: 1.08; AAAAAATAGC: 1.11.
Next, TGATCAGCTG: 0.99; CGAGTATTCA: 0.969; CAGACATTTG: 1.01.
Next, TGTTGACGCC: 0.982; ATGATACTTG: 1; TATGCAGTAT: 1.1.
For CTAACTCAAT, the switch fluorescence ratio was found to be 1.16.
As for TGCAGAAGTA, the figure is 0.982; as for GTTCCTGGG, 0.955.
Next, TCCCCAGGAT: 1.06; AGCTCGCTGG: 1.02; TTGTTCTCCC: 1.14.
As for TAGCGGCAGG, the figure is 0.995.
On to CGGGTAAGAT, for which the switch fluorescence ratio was determined as 0.982.
For CCAGATATAA, the switch fluorescence ratio amounted to 1.04.
As for AGCCGACCTG, the figure is 0.97; as for CGAGTAAACC, 1.02; as for GTTTCCGCAG, 2.61.
As for ACCGTCCTCA, the figure is 1.99; as for TAAGAAGAGG, 0.993.
As for TCCCCCTTTT, the figure is 1.04; as for GGTGTTTGGC, 0.954.
As for ACGACGGCTA, the switch fluorescence ratio came to 1.98.
CCCCTCGCTA: the switch fluorescence ratio stood at 4.41.
Next, AAGCAAATTA: 1.03; GTATTGCCTA: 1.01.
As for TCGTTTACGT, the switch fluorescence ratio is 1.
Next, AAAGTCAGTG: 1.03; GTGCATTTGA: 0.972.
As for TGCAAAGCAC, the figure is 0.986.
As for CGTTGGGCAC, the figure is 1.06.
As to ATCAGATGCG, the switch fluorescence ratio amounted to 1.01.
Next, ACAGCACGTC: 1.35; CCGCCGGGCA: 1.16; CTTATTGGCA: 1.01.
As to AACGTGCTAC, the switch fluorescence ratio was 1.3.
Next, ACGTAACGTT: 1.14; CAGGGTAATA: 1.06; AGGGGATCGT: 0.954.
For GACTATGGCT, the switch fluorescence ratio is 0.998.
As for GAAAGAAGC, the figure is 1.01.
Next, GGGTTTTCT: 0.996; GAGCTGAGGC: 1.03.
Turning to CTTGGAACT, the switch fluorescence ratio was 1.03.
As for ATTGTATATG, the figure is 1.01; as for GCAGCCGCGT, 1.07; as for GGGGTGTATG, 0.997.
As for CGATAATCTG, the switch fluorescence ratio turned out to be 1.06.
Turning to CTTGAGCGAC, the switch fluorescence ratio stood at 1.41.
For the sequence CAGTGTTTTT, the switch fluorescence ratio came out at 0.974.
As for ACAGTTCTCG, the switch fluorescence ratio was 0.978.
Next, GCCACCTTGG: 1.02; TTGTGTGAGA: 1.04; CCGGGAGAG: 1.33.
Consider GGCGTGTGTC, for which the switch fluorescence ratio came out at 1.04.
Next, ATGGTGATGA: 0.995; TTGGCCACGT: 0.987.
As for CCCGTCGTGT, the figure is 1.09; as for CACATAATCG, 1.05.
Next, TCGAGGTTT: 0.958; GCGAATTGCT: 1.01.
Turning to TATTTTAACT, the switch fluorescence ratio came out at 0.962.
As for TAAGCCATGA, the figure is 1.03.
Next, CTCACCCAGC: 4.34.
